Measured values: PubChem BioAssay AID1508624 (National Center for Advancing Translational Sciences (NCATS), 2021)
In all, about 48,000 compounds went through this assay and about 120 (0.25%) were called active. Not shown: some 4% with an inconclusive outcome. Calls come from the whole dose curve; as a rule, active = well fitted activation curve with a large enough effect; inconclusive = small, poorly fitted or top-dose-only effect, or another doubt; inactive = no such curve, though single readings can be large or run the other way. This is one part of the list.

Experiment: Primary qHTS for Identification of Small Molecule Activators of Huntingtin-Antisense Promoter Activity; note: nearly all actives have a fitted effect of over 55% in size
Conditions: HEK293 HTT-AS promoter firefly luciferase reporter (activity 0% = vehicle and -100% = no light), 24 h; series mostly up to 57.5 µM; activity change, positive = activation: at the top concentration
Outline: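 Firefly luciferase readout (Dual-Glo, 10 min RT) after 24 h, 37 °C compound exposure (final up to 57.5 uM) of HEK293 reporter cells cultured 24 h beforehand; PTC124 at 50 uM final as control inhibitor; activity scaled vehicle 0%, zero RLU -100%.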

Activity change, positive = activation, inactive:
CCOc1ccccc1NC(=O)c1ccc2c(c1)CCN2S(C)(=O)=O -4.74%
COc1cc(C2c3c(-c4cc(C)ccc4O)n[nH]c3C(=O)N2Cc2cccnc2)cc(OC)c1OC (stereo not given) -4.09%
Cc1ccc(-n2c(SCC(=O)N3CCc4ccccc43)nc3c([nH]c4ccccc43)c2=O)cc1 8.93%
CCn1cc2nc(SCC(=O)Nc3cc(OC)ccc3OC)n(Cc3ccc(Cl)cc3)c(=O)c2n1 -22.3%
O=C(Nc1ccc(OC(F)(F)F)cc1)c1cc2c(=O)n3ccccc3nc2s1 -0.645%
CCS(=O)(=O)N1CCc2cc(C(=O)Nc3cc([N+](=O)[O-])ccc3C)ccc21 -20.8%
O=C(CCn1c(=O)c2cccn2c2cccnc21)N1CCN(c2ccc(F)cc2)CC1 -15.5%
COc1ccc(C(=O)Nc2ccc3nc(SCC(=O)N4CCCC4)sc3c2)cc1 -8.59%
COc1ccccc1CCNC(=O)Cn1ccc2cc(S(=O)(=O)N3CCCCC3)ccc21 -38.5%
CC(C)(C)CC(C)(C)c1ccc(O)c(Cc2ccc(Cl)cc2Cl)c1 -0.121%
CCCC(=O)Nc1nnc(SCc2cc(=O)n3ccccc3n2)s1 -5.97%
O=C(NC1CCCCC1)c1ccc2c(c1)N(Cc1ccccc1F)C(=O)c1ccccc1S2 -1.9%
Cn1c(=O)c(=O)n(C)c2cc(S(=O)(=O)N3CCCC3C(=O)Nc3cccc(F)c3)ccc21 (stereo not given) -3.8%
CCc1ccccc1NC(=O)c1nn(-c2ccc(C)cc2)c(=O)c2c1c1ccccc1n2C 15%
CC(C)c1cc(C(=O)NCc2ccc(F)cc2)no1 29.4%
CCS(=O)(=O)n1nc(-c2ccco2)nc1NCc1ccc(C(C)C)cc1 10.2%
CC(=O)Nc1ccc(NC(=O)C(NC(=O)C2CCC(C)CC2)C(C)C)cc1 (stereo not given) -16.9%
CN(C)CCOc1ccc(C(=C(CCCl)c2ccccc2)c2ccccc2)cc1 -12%
Cc1ccc(-n2cnc3cc(C(=O)NC4CCCCCC4)ccc32)c(C)c1 -19.9%
COc1ccc(C)cc1NC(=O)C1CCC(CNS(=O)(=O)c2ccc3c(c2)CCCC(=O)N3)CC1 (stereo not given) -36.5%
CCc1ccc(Cn2nnc3c(=O)[nH]c(C4CCCN(C(=O)c5cccc(Cl)c5)C4)nc32)cc1 (stereo not given) -23.3%
O=C(Nc1ccc(F)cc1)c1ccc(CN2CC(=O)N3CCCCC3C2=O)cc1 (stereo not given) -12.6%
CC(=O)c1cccc(NC(=O)CCS(=O)(=O)c2ccc3c(c2)n(C)c(=O)c(=O)n3C)c1 -6.91%
COc1ccc(OC)c(NC(=O)CSc2c3c(nc4cc(Cl)ccc24)CCCC3)c1 -12.5%
NC(=O)CSc1nc2cc3c(cc2c(=O)n1CCCCCC(=O)NCc1ccc2c(c1)OCO2)OCO3 11.7%
O=C(Nc1ccccc1C(F)(F)F)C1(S(=O)(=O)c2ccc(Cl)cc2)CC1 -10.4%
CN1CC(=O)N(CC(=O)Nc2cccc(C#N)c2)c2ccccc2C1=O -7.14%
COc1ccc(OC)c(NC(=O)C2CCCN(S(=O)(=O)c3ccc4[nH]c(=O)ccc4c3)C2)c1 (stereo not given) -16.7%
CCOC(=O)N1CCN(Cc2nc3cc(NC(=O)c4ccc(F)cc4)ccc3n2C(C)C)CC1 -38.5%
COc1ccc(-c2cn3c(n2)sc2cc(C(=O)NCC(C)c4ccccc4)ccc23)cc1 (stereo not given) 27.6%
Cc1c(Cl)cccc1NC(=O)Nc1nnc(N(C)C2CCCCC2)s1 -11%
Cc1ccc(CCNC(=O)c2cnc3c(C)cccn3c2=O)cc1 12.8%
CCCCCCNC(=O)CCc1c(C)nc2nc(-c3cc(OC)cc(OC)c3)nn2c1C -16.2%
Cc1ccc(C(=O)c2cn(Cc3cc(C)ccc3C)c3nc(C)ccc3c2=O)cc1 -26%
CN(C1CCCCC1)S(=O)(=O)c1ccc2c(c1)c(=O)c(C(=O)N1CCN(c3ccc(F)cc3)CC1)cn2C -6.91%
CCOCCCNC(=O)C(NC(=O)C1CCC(C)CC1)C(C)C (stereo not given) -3.97%
CCN1CCSc2ccc(C(=O)NCc3ccc(F)cc3)cc21 -17%
CCCCNC(=O)c1cc(-c2cccnc2)nc2ccc(S(=O)(=O)NCCCC)cc12 -12%
COc1ccc(NCc2cccn2-c2nnc(N3CCOCC3)s2)cc1OC -6.38%
COc1ccc(CNC(=O)Cn2ncc3c(=O)oc4ccccc4c32)c(OC)c1 2.38%
CC(=O)c1c(C)n(S(=O)(=O)c2ccc(Cl)cc2)c2ccc(NS(=O)(=O)c3ccc(Cl)cc3)cc12 -24.3%
Cc1cc(C)cc(NC(=O)Cn2nc(N3CCN(c4ccccc4)CC3)ccc2=O)c1 -25.9%
CC(C)c1ccc(OCC(=O)Nc2cc(-c3ccccc3)no2)cc1 0%
COc1ccc(S(=O)(=O)NCCc2sc(-c3cccnc3)nc2C)cc1OC -11%
COc1cc(CN(C(=O)c2ccccc2Br)c2ccccn2)cc(OC)c1OC -12.7%
Cc1ccc(NC(=O)CN2C(=O)C(c3ccc(C)cc3)=NC23CCCCCC3)cc1 -40.2%
Cc1ccc(C)c(N2CCN(C(=O)CCS(=O)(=O)c3ccc4c(c3)oc(=O)n4C)CC2)c1 -29.4%
COc1ccc2c(c1)c(=O)c(S(=O)(=O)c1ccc(Cl)cc1)cn2Cc1cc(C)ccc1C -8.37%
CCOC(=O)c1ccc(N)cc1 -2.97%
CCOc1cc2c(cc1OCC)C(CC(=O)OC)N(C(=O)Nc1cc(OC)ccc1OC)CC2 (stereo not given) -49.3%
CCN(CC)C(=O)c1sc2c(c1C)c(=O)n(CCc1ccccc1)c(=O)n2Cc1ccc(C)cc1 -23.1%
CCn1ccc2c(OCC(=O)Nc3ccc(C)c(Cl)c3)cccc2c1=O -27.9%
COc1cccc(N2CCN(C(=O)CCSCc3ccccc3F)CC2)c1 -4.59%
CCN(CC)c1cc(C)c2cc(NC(=O)c3cc(OC)cc(OC)c3)ccc2n1 -17.8%
Cc1cccc(C(=O)Nc2c(C(=O)N3CCN(c4ccc(F)cc4)CC3)oc3ccccc23)c1 -16.5%
CCOC(=O)C1CCN(S(=O)(=O)c2cc3c4c(c2)C(C)C(=O)N4CCC3)CC1 (stereo not given) -8.11%
Cc1cc(=O)n(Cc2c(F)cccc2Cl)c2c1c(C)nn2-c1cccc(F)c1 -8.83%
O=C(Cc1ccc(Cl)cc1)NCC(c1cccs1)S(=O)(=O)c1ccccc1 (stereo not given) -18.3%
CCCSc1ncc(Cl)c(C(=O)Nc2sc(C(C)=O)c(C)c2C(=O)OCC)n1 13.3%
Cc1ccc(S(=O)(=O)N(CC(=O)Nc2ccc(F)cc2F)Cc2ccc(F)cc2)cc1 -22.7%
CC(=O)Nc1ccc(NC(=O)c2cc(CN3CCCC3)on2)cc1 -0.787%
COc1cc(C(=O)NC(c2ccccc2Cl)c2cc(Cl)c3cccnc3c2O)cc(OC)c1OC (stereo not given) -58.8%
COc1ccccc1C(=O)Nc1cccc(C(=O)OCc2cc(=O)n3c4c(sc3n2)CCCC4)c1 -33.6%
COc1ccc(NC(=O)CSc2oc(-c3ccco3)nc2S(=O)(=O)c2ccc(C)cc2)c(OC)c1 0.83%
Cc1c(CNC(C)CCc2ccccc2)c(C(=O)O)c(C)n1Cc1ccc(F)cc1 (stereo not given) -23.7%
CN(C)S(=O)(=O)c1ccc2c(c1)N(CC(=O)Nc1cccc(C(F)(F)F)c1)C(=O)CS2 -17%
Cc1onc(-c2ccccc2Cl)c1C(=O)Oc1ccccc1F -25.4%
CC(C)(C)OC(=O)N1CCC(N2CCN(Cc3ccccc3)C(=O)C2=O)CC1 -1.74%
CCCCCCCCCCCCc1ccc(S(=O)(=O)Nc2nncs2)cc1 -1.16%
CCOC(=O)c1ccccc1NC(=O)NCc1c(-n2cccc2)sc2c1CCCC2 -6.05%
CCOc1ccc(NC(=O)C(CC(C)C)N2Cc3ccccc3C2=O)cc1 (stereo not given) -5.81%
CCN(CC)CCOC(=O)C(c1ccccc1)c1ccccc1 -15%
Cc1csc2nc(COC(=O)c3cccc(NC(=O)COc4ccccc4Cl)c3)cc(=O)n12 -15%
OC(CCCN1CCCCC1)(c1ccccc1)c1ccccc1 -15.2%
COCCCNC(=O)c1nn(C)c2c1CS(=O)(=O)c1ccccc1-2 -13.4%
CCc1cccc(NC(=O)Cc2nc(-c3ccc(OC)cc3)no2)c1 -17.4%
COc1ccc(CNC(=O)CC2N=C3c4ccccc4N=C(SCC(=O)Nc4ccc(C(C)C)cc4)N3C2=O)cc1 (stereo not given) 1.98%
COCc1cc(C)nc2sc3c(c12)NC(c1ccccc1C(=O)O)N(c1cccc(C(F)(F)F)c1)C3=O (stereo not given) 6.01%
Cc1ccc(S(=O)(=O)c2nc(-c3cccc(Br)c3)oc2N2CCCCCC2)cc1 6.13%
COc1cc([N+](=O)[O-])ccc1NC(=O)c1nc2ccccc2n(C)c1=O 3.03%
O=C(CSc1nnc2[nH]c(=O)cc(-c3ccccc3)n12)Nc1ccc(OC(F)(F)F)cc1 23.3%
COc1ccccc1NC(=O)CSc1oc(-c2ccco2)nc1S(=O)(=O)c1ccc(C)cc1 2.31%
CCOc1ccc(NC(=O)c2oc3ccccc3c2NC(=O)C(C)(C)C)cc1 -4.27%
O=C(CC1N=C2c3ccccc3N=C(SCC(=O)Nc3ccc(F)cc3)N2C1=O)NCc1ccco1 (stereo not given) -27.4%
CCOc1ccc2nc(N3CCCC(C(=O)Nc4ccc(OC)cc4)C3)sc2c1 (stereo not given) 25.5%
COc1ccc(CCNC(=O)c2c(O)nc3ccccn3c2=O)cc1OC -17.1%
Cc1ccc(C(=O)Nc2nnc(S(=O)(=O)N(C)Cc3ccc(Cl)cc3)s2)cc1 -4.46%
COc1cc(Nc2ncc3c(n2)CCN(Cc2ccc(OC(C)C)c(OC)c2)C3)cc(OC)c1 -24.6%
CCc1nn2c(=O)cc(COC(=O)c3ccc(NC(=O)COc4ccccc4C)cc3)nc2s1 -9.05%
O=C(Nc1ccccc1-c1nc2ccccc2s1)c1ccc(F)cc1 14.9%
Cc1ccc(CN2CCCn3nc(C(=O)NCc4ccc(N(C)C)cc4)cc3C2=O)cc1 -35.4%
COc1ccc(CCNc2nc3c(-c4cccc(C(F)(F)F)c4)nnn3c3ccccc23)cc1OC 2.97%
O=C(CSc1nc2ccsc2c(=O)n1-c1ccc(Cl)cc1)NCc1ccc(Cl)cc1 -38.7%
CC1CCN(c2nc(-c3ccc(C(C)(C)C)cc3)nc3ccccc23)CC1 -44.1%
CCC(=O)N1CCc2cc(S(=O)(=O)NCCC(=O)Nc3ccc(CC)cc3)ccc21 -10.7%
